In PubChem BioAssay AID686978 (National Center for Advancing Translational Sciences (NCATS), 2013):
Where “and” joins values, the source holds several entries; their conditions need not be identical. Equal entries are not always repeated. Hit rate of the full screen: of about 420,000 compounds, about 64,000 (15%) were called active. This list was built around the results that the source calls inconclusive (neither active nor inactive); the mix of calls is not that of the screen. Calls follow the shape of the dose curve; as a rule, active = well fitted inhibition curve with a large enough effect; inconclusive = small, poorly fitted or top-dose-only effect; inactive = flat fitted curve, though single readings scatter. Potencies beside an inconclusive call are fits to weak or partial responses and may not hold up.
Potency is read from the fitted curve at half-maximal effect; tags tell the direction and shape of the fitted curve.

Experiment: qHTS for Inhibitors of human tyrosyl-DNA phosphodiesterase 1 (TDP1): qHTS in cells in absence of CPT; also: nearly all actives have a fitted effect of over 55% in size
Details: DT40 Tdp1-/- hTDP1 cells, no CPT, ATP luminescence, 48 h; series mostly up to 46.2 µM
How it was run: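 Stably hTDP1-transfected Tdp1-null chicken DT40 cells were treated with library compounds minus camptothecin and grown for at least 48 hr at 37 °C, after which cellular ATP was quantified by luminescence.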
With `Cc1ccccc1OC(=O)CSc1nnc(-c2cccs2)o1` the Potency was “inactive”.
With `O=C(Nc1ccc(Oc2ccccc2)nc1)C1CCN(Cc2ccco2)CC1` the Potency was “inactive”.
With `O=C(NCCCn1ccnc1)c1ccc(S(=O)(=O)N2CCOCC2)cc1` the Potency was “inactive”.
In the case of `CCOC(=O)c1c(S(=O)(=O)N2CCCC(C(=O)N3CCN(c4ccccc4)CC3)C2)c(C)n(C)c1C` (stereo unspecified), the Potency is reported as inconclusive: 25.9 µM [inhibitor, single point].
For `COc1cccc2c1CCC(NC(C)=O)C2=O` (stereo unspecified), the Potency was “inactive”.
For `c1ccc(CNc2nc(-c3cccnc3)nc3ccccc23)cc1`, the Potency was inconclusive: 29.1 µM [inhibitor, single point] and inconclusive: 23.1 µM [inhibitor, single point].
With `CC1(C)CC(=O)C2=C(C1)NC(=O)NC2c1ccc(Cl)cc1` (stereo unspecified) the Potency was inconclusive: 0.517 µM [inhibitor, full curve, poor fit].
With `Cc1ccccc1OCC(O)CN(CCO)Cc1ccccc1` (stereo unspecified) the Potency was “inactive”.
With `CC(C)(C)c1nc(CN2CCOCC2)cc(CN2CCOCC2)c1O` the Potency was inconclusive: 18.4 µM [inhibitor, single point].
In the case of `COc1ccc(CCNc2ccncn2)cc1`, the Potency is reported as active: 14.6 µM.
For `Cc1ccc(S(=O)(=O)N2CCOCC2)cc1C(=O)N1CCN(S(=O)(=O)c2cccs2)CC1`, the Potency was “inactive”.
For `O=C(C1=COCCO1)N(Cc1nnc(-c2ccc(Cl)cc2)o1)C1CC1`, the Potency was inconclusive: 20.6 µM [inhibitor, single point].
In the case of `CC(=O)Nc1ccc(S(=O)(=O)NC(=O)C23CC4CC(CC(C4)C2)C3)cc1`, the Potency is reported as “inactive”.
For `O=C(CCc1ccccc1Cl)Nc1ccc(S(=O)(=O)N2CCOCC2)cc1`, the Potency was inconclusive: 16.4 µM [inhibitor, single point].
For `Cc1ccc(S(=O)(=O)C/N=C(/NC(=S)N(c2ccccc2)c2ccccc2)c2ccccc2)cc1`, the Potency was “inactive”.
In the case of `COc1ccc(-c2nc3ccccc3o2)cc1NC(=O)COc1ccc(C(C)(C)C)cc1`, the Potency is reported as active: 16.4 µM.
For `O=C(O)CSc1nccn1-c1cccc(Cl)c1`, the Potency was “inactive”.
With `Cc1cccc2cc3c(NC(=O)C(C)(C)C)nn(CC(C)C)c3nc12` the Potency was inconclusive: 18.4 µM [inhibitor, single point].
With `COc1cccc(N2CC(NC(=O)c3ccc(S(=O)(=O)N4CCCCC4)cc3)CC2=O)c1` (stereo unspecified) the Potency was inconclusive: 23.1 µM [inhibitor, single point].
For `CCOc1ccc(S(=O)(=O)NCC(c2ccco2)S(=O)(=O)c2ccc(F)cc2)cc1` (stereo unspecified), the Potency was inconclusive: 20.6 µM [inhibitor, single point].
In the case of `CC(=O)c1c(C)[nH]c(C(=O)Nc2ccccc2Cl)c1C`, the Potency is reported as inconclusive: 29.1 µM [inhibitor, single point].
